In all, about 33,000 sequences were measured (“E-score (-0.5 to 0.5)”: median about -0.016, highest 2% from about 0.31 on). Some of the results follow.
target: Cst6 (UniProt P40535); assay: PBM E-score (8-mer binding enrichment) (E-score (-0.5 to 0.5)); higher = stronger / more preferred TF binding; most listed sequences are background and not binding sites; settings: protein concentration: 200 nM; construct: GST-DNA-binding domain
Procedure: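 Universal 'all 10-mer' protein binding microarrays (Agilent AMADID 015681) probed with GST-tagged S. cerevisiae TFs (full-length or DBD) made by in vitro transcription/translation (PURExpress), about 100-200 nM. Bound TF was detected with fluorescent anti-GST. Each ungapped 8-mer (which stands for itself and its reverse complement) is scored by the PBM enrichment score (E-score), a modified Wilcoxon-Mann-Whitney statistic from -0.5 to +0.5, computed with the Universal PBM Analysis Suite. Scale: above 0.35 generally sequence-specific binding.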

Sequence | PBM E-score
CTAACTAA | 0.0125
AGCCTGAA | -0.0532
ATGCTCGC | -0.0729
AACTTGGC | -0.0139
ACGTCTAC | 0.082
CCAGAGCG | -0.306
AAATCCCC | -0.25
CAGGCAAA | 0.0338
GCGCTAAC | 0.0914
CCTGGACC | -0.26
ATCGGAAC | -0.111
ACCCCACG | -0.224
GTGGGCAA | -0.138
AAGTCGCC | -0.219
ATCACACA | 0.162
CATCGACA | -0.108
AAGTGTGG | -0.125
AGGCCTGC | -0.252
AGTCCTCG | -0.209
GGAGCGGA | -0.166
CGGGAACG | -0.199
ACCCCGAG | -0.234
AACGCCTA | -0.00722
ACACACTC | 0.0263
CATGAATA | 0.0861

Sequence | PBM E-score
GACGCATA | 0.315
ACTGACGG | 0.105
ACTCCCTC | -0.168
ACCATTGG | -0.0729
AAACAAGA | 0.0875
AGGACTTC | -0.235
GTGGAAAA | 0.0659
GTGCGAAA | -0.00531
AGACCACG | -0.232
AGTAGCAA | 0.0802
CAAAACCC | 0.0437
CGCGCCAC | 0.0722
AGACCCAA | -0.0611
CCAGCGTC | -0.213
CACTCATC | 0.00188
AGCAGCGC | -0.224
GGTGAGTA | -0.0162
GGCAACAA | 0.194
AGAGATTC | -0.0387
AATTCCGA | 0.0242
AGATCTGG | -0.21
GACAATGC | 0.0763
GAGATCCA | -0.142
CGCGATCC | -0.0522
ACACGAAA | 0.0875

Sequence | PBM E-score
ACGGTGCG | 0.104
GTCAATTA | 0.132
TAGTTATA | 0.177
ACCGCCGA | -0.117
CTTACAAA | 0.105
CATCTTCG | -0.0381
GTCACTGA | 0.281
ATTCTGAG | 0.104
TATTGTCA | 0.276
ATTTCACA | 0.175
ACATGCCT | 0.0329
ACTCCCGG | -0.227
CAGATGTC | 0.0572
CACACGTC | 0.293
AAGTCACT | 0.141
AACGGAGC | -0.164
GGCTGCCA | -0.204
CCCCGTAC | -0.254
GGTGGTAC | -0.311
TATTTCGA | 0.239
AACCAACG | -0.161
ACCCATGC | 0.0693
TCATCAGA | 0.135
AGACACCG | -0.0399
CTCTACCC | -0.13

Sequence | PBM E-score
ACGGGGCC | 0.00152
CTTTAAGC | 0.0326
CTCGATCC | -0.195
AATACTAG | 0.121
CGACCAAC | -0.0308
AAGATCTC | 0.0487
GGGAACAC | -0.184
GATGGAGA | 0.00147
CCTCCCTA | -0.368
CTCAGCTC | -0.214
ATGACAGC | 0.253
GAGGAAGC | -0.256
ACCGCTTA | -0.0456
CTCCTAAA | -0.14
CAATATTA | 0.215
TAGGAAAA | 0.0141
GCGGCAAA | 0.149
AATCCCCC | -0.247
ATGTAATC | 0.299
AATCGCTG | -0.196
CGAATGTA | -0.051
CAGCAAGA | 0.0186
CGCCATTA | 0.0415
CTGCAAAC | -0.0743
AATGAAGC | 0.0218

Sequence | PBM E-score
CCCTGTCC | -0.337
GACTTGAC | -0.0223
CCGTCTTA | 0.0275
ATTGTTCC | 0.0298
AGGCGGAG | -0.247
AGTCGGCA | -0.0646
GCGCAGCC | -0.38
AGAGATTG | 0.166
AGAGCTGA | 0.00422
AAGCTCGG | -0.13
GACCATTA | 0.0582
ACTTACAC | 0.0708
AGCGCCTG | -0.227
CAATGTCG | 0.179
AATGAGTC | -0.0722
CTTAGCGA | -0.0368
GCGTTGCC | 0.0103
ATGCTTAG | 0.168
AAGAAGCT | 0.147
TACCGAAA | -0.00477
TACACAGA | 0.0443
CCTTACAC | -0.088
AACAAGCG | 0.0764
CGCGTGAA | 0.126
ATGGTCAG | 0.102

Sequence | PBM E-score
GAACTGGA | 0.0771
TATGAAAA | 0.225
AGGATTAA | 0.00584
GATAGGCA | 0.104
CAAACTCC | 0.0554
TGAGCTAA | 0.187
AGAGACAA | -0.108
AACATGGT | -0.0339
GGAGCTAA | -0.12
CGAGCCGC | 0.276
ATCCTAAC | 0.0564
AGGTAAGG | -0.132
AGACTACT | -0.0215
ACAAATGA | 0.224
GGACGCCA | -0.139
GCCGACCA | -0.302
CATAGGGG | -0.183
AGCCAGAC | -0.101
GGCCTAGA | -0.24
AGGTAGTC | -0.212
ACTCTGAC | 0.0578
CGTAAAAC | -0.0276
CGACATTA | 0.213
GTAGCCTA | -0.102
GTAGCGAC | -0.304

Sequence | PBM E-score
GCATTGAA | 0.103
GTGAAACA | 0.181
CCCCCAGG | -0.355
ATGATTTC | 0.249
ATCCTGGA | -0.0468
GGTCCATA | -0.34
AAGTAAGA | 0.0906
AAGGCACG | 0.286
AAATGTCC | -0.233
AAATTCCC | -0.0866
AATGGCGT | 0.191
GCGCTACA | 0.0789
GGGGGATA | -0.388
CATCTTTC | 0.0966
ACACCCAT | -0.041
GCTAACGA | 0.174
AACTTACA | 0.0468
CATAAATG | 0.0924
ACTCATCG | -0.0112
GACAGGAC | -0.132
CGTGTCCC | -0.119
GGCCAGGA | -0.311
AAAATGTG | 0.0753
CCGTGATA | 0.0349
GAGTGGAC | -0.107

Sequence | PBM E-score
GCGATGAC | 0.413
AATCCACA | 0.112
CCGTCAAC | 0.0147
AGGTTGGG | -0.046
CACCCCAG | -0.0965
TCACCCCA | 0.17
AATATCCA | 0.0798
AGTATGAC | 0.354
GTCGTGTA | 0.0765
AACCCACG | 0.00976
ATATAGAT | 0.225
GTTAATGA | 0.183
CGACAGCC | -0.12
AAGACATC | -0.134
CACGCAGG | 0.0573
TAGCGTCA | 0.399
CAGCCCCG | -0.203
CCATAGCC | -0.163
CCGGCCGA | -0.161
CACTCTTC | -0.0467
ATCGGCAT | 0.23
CAGTTGCA | 0.0715
CATGTTAC | 0.161
GTAGCAAA | 0.0341
ATAGCTGA | -0.204

Sequence | PBM E-score
GATTTCCA | -0.0575
AAACCAGG | -0.112
ACCCTCAC | -0.204
GGAAGATA | 0.0939
CGCACCTC | -0.215
AAGCTAGA | -0.136
GACCCGCA | -0.15
CCTACTCC | -0.034
GCGCTCCA | -0.238
ACGTACTA | 0.13
CGATTCTC | -0.0587
GAGGGGAA | 0.00588
AGACCCCT | -0.31
ATCAATGA | 0.35
GGCCCACC | -0.228
CGGACGAA | 0.149
ACGGGCCC | -0.245
GGACTTGA | -0.336
ATTCTTGG | 0.172
ATTAAACC | 0.0848
ACCTCCTC | -0.0948
CGCATCGC | -0.137
GAATCTCC | -0.123
CCCTTCTC | -0.337
CTTGTGTA | 0.0593

Sequence | PBM E-score
CCGAAAGA | 0.0328
CACCGGTG | -0.0383
ATTGATGG | 0.142
CGACGGAG | -0.184
CCTACGAA | 0.00469
GAAGGTCA | -0.0976
CCGTTCAC | -0.191
ATCGTCGC | -0.0136
CAGCGCGG | 0.05
ATCCTCCG | -0.29
GACAATAA | 0.23
CTAGTAAC | 0.0118
CGACACTC | 0.00556
GCGGGTCC | -0.377
GCTATTCC | -0.0713
CGTCCTTA | -0.0944
AAAGAGCG | 0.0544
AACAAGCC | -0.0318
GCCCCACA | -0.172
ACATCTGG | -0.0113
GAAGGAGC | -0.358
CTCCACGA | -0.0356
GAATTGAC | 0.0822
ATGCCTTG | 0.0187
CCAGGGCG | -0.186

Sequence | PBM E-score
AATATAGG | 0.212
TCGAACAA | 0.233
CGTGGGAC | -0.166
CTGGCTCA | -0.00844
GCGTATAA | 0.152
GTAGACAA | 0.0542
CATATTCG | 0.054
AGTTTGTC | 0.0452
ATCGCTAC | -0.0929
ACGGTATG | 0.13
AGTTACCG | 0.0986
TGAACCAA | 0.184
AAATCAAA | 0.153
ATCTATAG | 0.0424
CTGATCCA | -0.0615
ACATCAAG | 0.207
CGCGCTCC | -0.115
GAGTGCTA | -0.245
AACTCCGG | -0.00288
GTGTACTA | 0.0551
GTCGGAAA | 0.129
ATTCTACG | 0.154
GCGCCGCC | 0.25
GTAAGGTA | 0.123
ACAGCGCC | -0.00011

Sequence | PBM E-score
AAGACCTA | -0.126
CTCGGGTA | -0.0685
ACAGGTCA | -0.105
CGCCCGTC | -0.0631
AATACGGG | -0.0401
GAGTTCCC | -0.282
AGAGTATA | -0.0659
ATGAGCCG | 0.0382
ACCTTCTG | -0.00644
AGAGGAAT | -0.0707
CAGTTCTC | -0.0846
GATGCGTA | 0.0467
CAAGCTTG | -0.116
ATGCCCTG | -0.0453
CTATCTCA | 0.0196
AGACTTTC | -0.0766
AAACCCCC | -0.35
ACATAATC | 0.267
CAACAGTA | -0.0866
AATATTCA | 0.134
AAGTCCCA | -0.276
CTGAGTGA | 0.13
AGTAGATC | -0.13
ATTCCCCG | -0.124
CACTGCTG | -0.0596

Sequence | PBM E-score
CATTTGAG | 0.102
AATTTCAT | 0.18
CGGGACCA | -0.294
AAAAAGCG | 0.092
ACCGACAA | 0.133
GGGGCTCA | -0.238
CACTTACA | 0.173
CCCTATCC | -0.244
AAAGAAAT | 0.269
GCTGTCGA | -0.0648
CACCTCTC | -0.104
CTAAGATA | 0.0108
CAGTTCGG | -0.00485
ATGTGTCG | 0.00913
CGTGAGCC | -0.0798
GAGCCGGC | -0.177
TCATGAAA | 0.174
AGTTTATG | -0.0131
CACAAATC | 0.066
CATTGGTC | -0.245
AACGAAAG | 0.0561
GGGGTGGA | -0.272
AAAGTTCC | -0.175
GTTTTCGA | 0.134
AATCTTAT | 0.147

Sequence | PBM E-score
AACATGTA | 0.183
TCTACAAA | 0.0566
AATGTAGT | 0.0175
ACTTGAGA | 0.00386
ACCTTGGG | -0.0593
AGGTGGCG | -0.126
TGTGTGAA | 0.152
AGCAATAC | 0.0323
ACTTTCCG | -0.109
ATCAATTA | 0.302
CTTTGAAC | -0.165
AAGTCAAG | -0.114
ATGTTCTG | 0.0715
CCATTCCG | -0.112
TCAAACAA | 0.172
CACTTCAC | 0.00698
AGCGCAAC | -0.0272
CGGATTGC | -0.0601
ATTAAGAA | 0.193

From the supplement of paper PMC3334620
